Source: PubChem BioAssay AID1345082 (National Center for Advancing Translational Sciences (NCATS), 2018)
About 4,000 (4.3%) of roughly 94,000 compounds were called active. The shares of active, inactive and inconclusive entries below differ from those in the screen. Calls come from the whole dose curve; as a rule, active = well fitted inhibition curve with a large enough effect; inconclusive = small, poorly fitted or top-dose-only effect; inactive = no such curve, though single readings can be large or run the other way. Potencies beside an inconclusive call are fits to weak or partial responses and may not hold up.

Assay: Cytotoxic Profiling in NIH 3T3 Cell Line of Diverse Libraries Using Quantitative High-Throughput Screening; note: nearly all actives have a fitted effect of over 55% in size
Details: NIH 3T3 viability, CellTiter-Glo ATP luminescence, 48-72 h; activity change, negative = cytotoxicity: at 96.7 µM (top of the series); series mostly up to 96.7 µM
How it was run: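 ATP-dependent luminescence (CellTiter-Glo) served as the viability signal for NIH 3T3 cells treated with compound for 48 or 72 hr at 37 °C.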
% is set by controls: 0 for no effect and ±100 for the full control effect; potency is the fitted concentration of half-maximal effect; tags give direction and shape of the fitted curve.

SMILES	activity change, negative = cytotoxicity	Potency	outcome
CN1c2cc(C(=O)NCc3cc(F)cc(F)c3)ccc2C(=O)N2CCCCC21 (stereo not drawn)	inactive: -11.9%	–	–
CSc1cccc(NC(=O)O[C@@H]2CC[C@]3(C)C(CC[C@@H](O)[C@H]3CC(=O)N3CCC(C)CC3)[C@]2(C)CO)c1 (stereo partly drawn)	–	inconclusive: 22.4 µM [inhibitor, full curve, poor fit]	–
CC(=O)N1CCCN(c2ccc3nnc(C)n3n2)CC1	inactive: -29.9% [at 138 µM]	–	–
COCc1ccc2c(c1)c(OC(C)(C)C(=O)NCCN1CCOCC1)nn2Cc1ccccc1	–	inconclusive: 14.1 µM [inhibitor, full curve, poor fit]	–
COc1ccccc1N1CCCc2ncc(C(=O)N3CC[S+](=O)([O-])CC3)cc21	–	inconclusive: 89.1 µM [inhibitor, partial curve]	–
CCS(=O)(=O)N1CCCN(Cc2ccncc2)C(c2ccccc2)CC(=O)NCC1 (stereo not drawn)	inactive: -19.1%	–	–
CC1=NS(=O)(=O)N(C)C=C1C(=O)OCc1nc(-c2ccsc2)no1	inactive: -13.4%	–	–
O=C(NC1CCN(c2cc(-c3cccs3)[nH]n2)C1)c1cccc(OC(F)(F)F)c1 (stereo not drawn)	–	inconclusive: 35.5 µM [inhibitor, partial curve, poor fit]	–
O=C1NCCN2CC3(CCN(S(=O)(=O)Cc4ccccc4F)CC3)CC12 (stereo not drawn)	–	–	inactive
CN(Cc1ccc(-c2ccccc2)cc1)C(=O)c1ccc(Cl)nc1	–	inconclusive: 56.2 µM [inhibitor, partial curve, poor fit]	–
Cc1cc(Cl)ccc1Nc1ncncc1-c1nc(-c2ccccc2)no1	inactive: -10.9%	–	–
COc1cccc(-c2ccc(CN3CCCC(NC(=O)c4ccccc4F)C3)cc2)c1 (stereo not drawn)	–	inconclusive: 44.7 µM [inhibitor, partial curve, poor fit]	–
CC(C)(C)c1ccc(C(=O)Nc2nc3c(s2)C[C@@H]2[C@](C)(CO)[C@H](O)CC[C@@]2(C)[C@@H]3CC(=O)NCc2ccco2)cc1	–	inconclusive: 39.8 µM [inhibitor, partial curve]	–
Cc1ccc(C)c(-c2cc3c(=O)n(CCNC(=O)c4cccs4)ccn3n2)c1	–	inconclusive: 6.31 µM [inhibitor, full curve, poor fit]	–
O=C(NCc1ccc(F)cc1)c1ccc2nnc(-c3cc(C(F)(F)F)cc(C(F)(F)F)c3)n2c1	–	active: 35.5 µM	–
COc1ccc(CCC(=O)N2CCC[C@H]2c2nc(-c3ccc(C)cc3)no2)cc1	–	inconclusive: 50.1 µM [inhibitor, partial curve, poor fit]	–
Cc1cc(C)cc(-c2ccc(CN3C4CCC3CN(C(=O)Nc3ccccc3F)C4)cc2)c1	–	inconclusive: 35.5 µM [inhibitor, partial curve, poor fit]	–
CCCNC(=O)N1C[C@@H]2C(=O)N(C(CC)c3cccs3)C(=O)[C@@H]2C1 (stereo partly drawn)	–	–	inactive
CCc1nc2c(c(-c3ccc(OC)cc3)n1)CCN([S+](=O)([O-])c1cccc(OC)c1)CC2	–	inconclusive: 20 µM [inhibitor, full curve, poor fit]	–

SMILES	activity change, negative = cytotoxicity	Potency	outcome
Cc1cc(Cn2cc3c4c(cccc42)[C@H](CC(C)C)N[C@H](C(=O)NC(C)C)C3)no1	–	active: 50.1 µM	–
Cc1cc(C)n(Cc2ccc(C(=O)N3CCCCCC3c3nnc(-c4ccccc4)o3)o2)n1 (stereo not drawn)	–	inconclusive: 50.1 µM [inhibitor, partial curve, poor fit]	–
O=C(c1ccc2nnc(-c3ccc(Cl)cc3)n2c1)N1CCN(c2ncccn2)CC1	inactive: -23.4%	–	–
CCOc1ccccc1C(=O)N1C[C@@H](CO)[C@@H]2Oc3ccc(Cl)cc3[C@@H]21	–	inconclusive: 70.8 µM [inhibitor, single point]	–
CCn1ccnc1CN(C)Cc1cn(Cc2ccccc2)nc1-c1cc2ccccc2o1	–	active: 39.8 µM	–
CC1=C[C@@H](CNC(=O)c2ccco2)[C@H](C(C)C)C[C@H]1CC(=O)N(C)Cc1ccccc1	–	active: 100 µM	–
COc1ccc(CO[C@H]2COCCN(c3nc4ccccc4s3)C2)cc1	–	inconclusive: 100 µM [inhibitor, partial curve, poor fit]	–
COc1ccc(C(=O)N[C@H]2CC[C@]3(C)CCC([C@H](C)C(=O)NCCN4CCOCC4)[C@H](O)[C@H]3[C@@H]2C)cc1 (stereo partly drawn)	inactive: -13.2%	–	–
Cc1ccc(C(=O)NC2CCCN(c3cc(-c4ccccc4)[nH]n3)C2)cn1 (stereo not drawn)	–	inconclusive: 44.7 µM [inhibitor, partial curve, poor fit]	–
COc1cccc(-c2nc(N3CCOCC3)cc3c2CN(C)C3=O)c1OC	–	inconclusive: 10 µM [inhibitor, full curve, poor fit]	–
Cc1nn2c(c1-c1ccccc1C(C)C)N(C(=O)Cc1ccccn1)CCC2	–	inconclusive: 56.2 µM [inhibitor, partial curve, poor fit]	–
Cc1nn(-c2ccccc2)c2c1C(C1CC1)N(CC1CN(C(=O)c3cccc(Cl)c3)C1)C2=O (stereo not drawn)	–	inconclusive: 15.8 µM [inhibitor, full curve, poor fit]	–
O=C(Cc1cccc(Cl)c1)NCc1nnc2ccc(-c3ccccc3)nn12	–	inconclusive: 70.8 µM [inhibitor, single point]	–
Cc1ccc(C(=O)N2CCN(c3cc(-c4ccccc4)[nH]n3)CC2)c(C)c1	–	active: 44.7 µM	–
O=C(Nc1ccc(Cl)cc1)N1CCC(c2nn(-c3ccc(Cl)cc3)c(=O)[nH]2)CC1	–	inconclusive: 44.7 µM [inhibitor, partial curve, poor fit]	–
CN1CCCN(C(=O)c2cc(F)ccc2F)c2ccccc21	–	inconclusive: 50.1 µM [inhibitor, partial curve, poor fit]	–
Cc1noc2c(NCCc3ccccn3)cc(-c3ccc(Cl)cc3)nc12	–	inconclusive: 50.1 µM [inhibitor, partial curve, poor fit]	–
CC1=C[C@@H](CNC(=O)c2ccccn2)[C@H](C(C)C)C[C@H]1Cc1nnc(-c2ccncc2)o1	–	inconclusive: 20 µM [inhibitor, partial curve, poor fit]	–
O=C(NC1CCN(C(=O)c2ccc(-c3cccs3)cc2)CC1)c1ccccc1	–	inconclusive: 31.6 µM [inhibitor, full curve, poor fit]	–
